# The other results are listed elsewhere or left out.
# B1: PX9937J-pdi-523-26-523 (Parabacteroides distasonis) (protein)
# chain: EPVSSISDANYWKSPDLFKAFNIGLHGLLRSQSSYNIFVLGEPRSDIYGDQPFGGEATQGVERFSYNTINAEFTGISNFANFYTTLNQINLMIRRTNETDLLGEAEKNYYLGQAYGLRAYIYFHLLRSWGDVIITTEPTLGSELDISHLDKAASPASEVMDLIKKDIDASEKAFGGDYSYKQGKCYWSKPATLMLKGEVYLWSGRQMGGGTGDYTVAKTALQDLQQNGNLKLQEKFTDVFSFNNKENSEMIFALHSGKEDDFMMWRDYNWRNNMVPQREYMAGYCDETGTPFLEIPGYNLQGLMRYQVKKDHYLKSFREGDTRLKGTLKAVYKKHEDGTLEYIAPIQYKFQGTTLEGSNERSWYDDYPIYRYADALLLLAEAKALLGEDPSTEINAVRERAYGSEYFNAHKNEVAYPNDKGSFYNDNPFEAGDENVMEAILKERLREFFFEGKRWYDLRRFGKDYVLKYTTAQESRLLWPINEGALTNNPALKQTPGY
# What was measured:
# Assay in all cases: glycan array binding signal (z-score within array); higher = stronger binding
# Conditions in all cases: glycan notation: IUPAC condensed, linker removed
# [1] = target: Neu5Ac(a2-6)GlcNAc(b1-4)GlcNAc(b1-4)GlcNAc
# In short: (§1)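 Negative Z-scores can be read as non-binding. The Z-score is calculated within each array and then averaged across arrays of one protein sequence at different concentrations or buffers and across linkers. Arrays, 3228 in all, were curated from the Consortium for Functional Glycomics database and kept only where the protein sequence was available.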
# Neu5Ac(a2-8)Neu5Ac = target: Neu5Ac(a2-8)Neu5Ac
# In short: as §1
# [2] = target: Neu5Ac(a2-8)Neu5Ac(a2-3)Gal(b1-3)GalNAc(b1-4)[Neu5Ac(a2-3)]Gal(b1-4)Glc
# In short: as §1
# [3] = target: Neu5Ac(a2-8)Neu5Ac(a2-3)Gal(b1-3)GalNAc(b1-4)[Neu5Ac(a2-8)Neu5Ac(a2-3)]Gal(b1-4)Glc
# In short: as §1
# [4] = target: Neu5Ac(a2-8)Neu5Ac(a2-3)Gal(b1-4)Glc
# In short: as §1
# [5] = target: Neu5Ac(a2-8)Neu5Ac(a2-3)Gal(b1-4)GlcNAc
# In short: as §1
# [6] = target: Neu5Ac(a2-8)Neu5Ac(a2-3)[Gal(b1-3)GalNAc(b1-4)]Gal(b1-4)Glc
# In short: as §1
# [7] = target: Neu5Ac(a2-8)Neu5Ac(a2-3)[GalNAc(b1-4)]Gal(b1-4)Glc
# In short: as §1
# [8] = target: Neu5Ac(a2-8)Neu5Ac(a2-8)Neu5Ac
# In short: as §1
# [9] = target: Neu5Ac(a2-8)Neu5Ac(a2-8)Neu5Ac(a2-3)Gal(b1-4)Glc
# In short: as §1
# [10] = target: Neu5Ac(a2-8)Neu5Ac(a2-8)Neu5Ac(a2-3)[Gal(b1-3)GalNAc(b1-4)]Gal(b1-4)Glc
# In short: as §1
# [11] = target: Neu5Ac(a2-8)Neu5Ac(a2-8)Neu5Ac(a2-3)[GalNAc(b1-4)]Gal(b1-4)Glc
# In short: as §1
# [12] = target: Neu5Ac(a2-8)Neu5Ac(a2-8)Neu5Ac(a2-8)Neu5Ac(a2-3)[GalNAc(b1-4)]Gal(b1-4)Glc
# In short: as §1
# [13] = target: Neu5Ac(a2-8)Neu5Gc(a2-3)Gal(b1-4)GlcNAc
# In short: as §1
# [14] = target: Neu5Ac(b2-6)Gal(b1-4)GlcNAc
# In short: as §1
# Neu5Ac(b2-6)GalNAc = target: Neu5Ac(b2-6)GalNAc
# In short: as §1
# [15] = target: Neu5Ac9Ac(a2-3)Gal(b1-3)GlcNAc
# In short: as §1
# [16] = target: Neu5Ac9Ac(a2-3)Gal(b1-4)GlcNAc
# In short: as §1
# [17] = target: Neu5Ac9Ac(a2-6)Gal(b1-4)GlcNAc
# In short: as §1
# [18] = target: Neu5Gc(a2-3)Gal(b1-3)GlcNAc
# In short: as §1
# [19] = target: Neu5Gc(a2-3)Gal(b1-3)[Fuc(a1-4)]GlcNAc
# In short: as §1
# Neu5Gc(a2-3)Gal(b1-4)Glc = target: Neu5Gc(a2-3)Gal(b1-4)Glc
# In short: as §1
# [20] = target: Neu5Gc(a2-3)Gal(b1-4)GlcNAc
# In short: as §1
# [21] = target: Neu5Gc(a2-3)Gal(b1-4)GlcNAc(b1-3)Gal(b1-4)GlcNAc(b1-2)Man(a1-3)[Neu5Gc(a2-3)Gal(b1-4)GlcNAc(b1-3)Gal(b1-4)GlcNAc(b1-2)Man(a1-6)]Man(b1-4)GlcNAc(b1-4)GlcNAc
# In short: as §1
# [22] = target: Neu5Gc(a2-3)Gal(b1-4)[Fuc(a1-3)]GlcNAc
# In short: as §1
# [23] = target: Neu5Gc(a2-6)Gal(b1-4)GlcNAc
# In short: as §1
# Neu5Gc(a2-6)GalNAc = target: Neu5Gc(a2-6)GalNAc
# In short: as §1
# [24] = target: Neu5Gc(a2-8)Neu5Ac(a2-3)Gal(b1-4)GlcNAc
# In short: as §1
# [25] = target: Neu5Gc(a2-8)Neu5Gc(a2-3)Gal(b1-4)GlcNAc
# In short: as §1
# [26] = target: Neu5Gc(a2-8)Neu5Gc(a2-3)Gal(b1-4)GlcNAc(b1-3)Gal(b1-4)GlcNAc
# In short: as §1
# [27] = target: Neu5Gc(a2-8)Neu5Gc(a2-6)Gal(b1-4)GlcNAc
# In short: as §1
# [28] = target: Neu5Gc(b2-6)Gal(b1-4)GlcNAc
# In short: as §1
binder,measurement,setting,value
B1,glycan array binding signal (z-score),[1],-0.178
same,glycan array binding signal (z-score),Neu5Ac(a2-8)Neu5Ac,-0.218
same,glycan array binding signal (z-score),[2],-0.149
same,glycan array binding signal (z-score),[3],-0.08
same,glycan array binding signal (z-score),[4],-0.56
same,glycan array binding signal (z-score),[5],-0.261
same,glycan array binding signal (z-score),[6],-0.125
same,glycan array binding signal (z-score),[7],0.126
same,glycan array binding signal (z-score),[8],-0.094
same,glycan array binding signal (z-score),[9],-0.364
same,glycan array binding signal (z-score),[10],-0.023
same,glycan array binding signal (z-score),[11],-0.5
same,glycan array binding signal (z-score),[12],-0.024
same,glycan array binding signal (z-score),[13],9.17
same,glycan array binding signal (z-score),[14],0.532
same,glycan array binding signal (z-score),Neu5Ac(b2-6)GalNAc,-0.668
same,glycan array binding signal (z-score),[15],-0.551
same,glycan array binding signal (z-score),[16],-0.44
same,glycan array binding signal (z-score),[17],0.254
same,glycan array binding signal (z-score),[18],-0.523
same,glycan array binding signal (z-score),[19],-0.62
same,glycan array binding signal (z-score),Neu5Gc(a2-3)Gal(b1-4)Glc,-0.703
same,glycan array binding signal (z-score),[20],-0.198
same,glycan array binding signal (z-score),[21],-0.317
same,glycan array binding signal (z-score),[22],-0.568
same,glycan array binding signal (z-score),[23],-0.357
same,glycan array binding signal (z-score),Neu5Gc(a2-6)GalNAc,0.093
same,glycan array binding signal (z-score),[24],-0.332
same,glycan array binding signal (z-score),[25],-0.415
same,glycan array binding signal (z-score),[26],-0.355
same,glycan array binding signal (z-score),[27],-0.389
same,glycan array binding signal (z-score),[28],-0.221

# From the supplement of paper PMC8728848
